Laboratory results as given in patent US20230042509A1, “TREATMENT FOR DISEASES CAUSED BY RNA VIRUSES” (Amerimmune LLC, priority 2021, published 2023).

Target: T1, Caspase 1 (Homo sapiens, UniProt P29466)
T1 sequence (P29466 120-297 limits assumed): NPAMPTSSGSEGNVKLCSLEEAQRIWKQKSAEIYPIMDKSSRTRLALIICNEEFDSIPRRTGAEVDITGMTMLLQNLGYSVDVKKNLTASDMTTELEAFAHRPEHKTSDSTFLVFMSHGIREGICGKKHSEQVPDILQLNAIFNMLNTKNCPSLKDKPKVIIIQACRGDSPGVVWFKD
T1 sequence (P29466 317-404 limits assumed): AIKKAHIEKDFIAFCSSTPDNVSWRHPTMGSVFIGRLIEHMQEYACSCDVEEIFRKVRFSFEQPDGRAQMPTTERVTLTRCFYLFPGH
Experiment: FLICA flow cytometry of active caspase-1 in PBMCs from Emricasan-treated COVID-19(+) whole blood (Example 7)
Details: 1 μM, 3.5 hours at room temperature, then nigericin 2 hours, CD3-, CD3+CD4+ cells, vs untreated, p≤0.005

With C[C@H](NC(=O)C(=O)Nc1ccccc1C(C)(C)C)C(=O)N[C@@H](CC(=O)O)C(=O)COc1c(F)c(F)cc(F)c1F [Emricasan, (3S)-3-{[(2S)-2-{[2-(2-tert-butylanilino)-2-oxoacetyl]amino}propanoyl]amino}-4-oxo-5-(2,3,5,6-tetrafluorophenoxy)pentanoic acid] the “active caspase-1 % positive cells” value was “significant reduction” and the “active caspase-1 MFI” value was “significant reduction”.
